# Experimental data: article PMC6919601, “Identification of Plasmodium dipeptidyl aminopeptidase allosteric inhibitors by high throughput screening” (PLoS ONE, 2019)
# In all, about 110,000 compounds went through this assay and about 230 (0.21%) showed an effect of 50% or more. Some of the results follow.
# Biological target: DPAP1 (Plasmodium falciparum, UniProt Q8IIJ9)
# Assay: primary screen, percent inhibition; read by cleavage of a fluorogenic dipeptide substrate; higher = more effect of the substance
# Parameters: species or system P. falciparum D10 trophozoite lysates; single well
# 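Also: 30 min substrate incubation versus DMSO and 10 µM JCP410 controls.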
# Chain of DPAP1 (Q8IIJ9 whole entry, looked up): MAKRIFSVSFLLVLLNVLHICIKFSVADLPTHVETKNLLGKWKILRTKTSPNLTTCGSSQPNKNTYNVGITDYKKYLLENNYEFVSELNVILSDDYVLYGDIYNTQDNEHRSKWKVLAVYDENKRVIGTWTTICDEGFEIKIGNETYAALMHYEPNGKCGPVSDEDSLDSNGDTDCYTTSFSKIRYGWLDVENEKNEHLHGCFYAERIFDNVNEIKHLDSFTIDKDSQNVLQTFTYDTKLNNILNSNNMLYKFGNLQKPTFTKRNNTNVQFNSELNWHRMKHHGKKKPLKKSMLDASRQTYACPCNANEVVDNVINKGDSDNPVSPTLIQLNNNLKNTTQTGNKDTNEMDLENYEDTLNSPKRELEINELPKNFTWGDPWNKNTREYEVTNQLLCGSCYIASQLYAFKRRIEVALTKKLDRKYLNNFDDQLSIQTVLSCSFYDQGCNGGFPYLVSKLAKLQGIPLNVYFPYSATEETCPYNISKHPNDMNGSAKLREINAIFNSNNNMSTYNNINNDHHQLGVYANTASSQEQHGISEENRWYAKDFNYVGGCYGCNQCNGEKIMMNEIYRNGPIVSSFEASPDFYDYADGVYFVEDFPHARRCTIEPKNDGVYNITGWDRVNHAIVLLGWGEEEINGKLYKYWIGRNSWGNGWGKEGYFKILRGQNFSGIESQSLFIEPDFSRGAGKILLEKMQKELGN
row,SMILES,% Inhibition @ 10 uM [%]
1,N#C/C(=C\c1ccccc1[N+](=O)[O-])c1nc(C2CC2)cs1,-0.591
2,CCOc1ccc(CCNCc2c(C(=O)O)[nH]c3cc(C)ccc23)cc1OCC,1.8
3,CNC(=O)C(C)n1nc(C)c2sc3ccccc3c2c1=O (stereo not drawn),-7.17
4,COCCn1c(CN2CCN(Cc3ccccc3)CC2)nc2c1c(=O)n(C)c(=O)n2C,3.63
5,O=C(O)c1ccccc1SCN1C(=O)c2ccccc2C1=O,-1.12
6,O=C(CN1C(=O)C2C3c4ccccc4C(c4ccccc43)C2C1=O)Nc1ccccc1C(=O)O (stereo not drawn),-1.65
7,C=CCN1CCN(c2ccncc2S(=O)(=O)N(C)C)CC1,1.72
8,CC1(c2ccc(Br)cc2)CC(c2ccc(Br)cc2)=Nc2ccccc2N1 (stereo not drawn),4.08
9,COc1cc(C)c(-c2[nH]nc(C)c2Oc2ccccc2)c(O)c1,-5.69
10,CCc1ccc(OCC(=O)NC(C)(C)C)c(Br)c1,-4.43
11,COc1ccc(CCNC(=O)[C@@H](c2ccccc2)N2Cc3ccccc3C2=O)cc1OC,1.26
12,COc1cccc2cc(C(=O)N3CCc4ccccc4C3)c(=O)oc12,0.484
13,COc1cc2c(cc1OC)CN(C(=O)c1ccc(CNS(=O)(=O)c3cc(C)ccc3C)cc1)CC2,-4.97
14,CC(=O)N1CCN(Cc2cccc(F)c2)CC1,1.26
15,O=C(CN1C(=O)CSc2ncccc21)NCCc1ccc(Cl)cc1,-6.01
16,CNC(=O)c1c(-c2ccccc2Cl)noc1C,1.88
17,CCOC(=O)c1c(C)n(C)c2ccc(OCC(O)CNCC3CCCO3)cc12 (stereo not drawn),-6.94
18,CCN1CCN(C2CC3CCC2C3)CC1 (stereo not drawn),1.57
19,Fc1ccccc1CN1CCN(C/C=C/c2ccccc2)CC1,1.4
20,Cc1ccc(CN(C)C2CCN(C)CC2)o1,-2.34
21,COc1ccc(C(=O)c2cn(-c3cccc(Br)c3)nc2C(C)=O)cc1,-1.98

row,SMILES,% Inhibition @ 10 uM [%]
1,CCc1ccc(C2N3CC4(CC)CN2CC(CC)(C3)C4=O)cc1 (stereo not drawn),-1.71
2,COc1ccc(-c2cc(C(=O)Nc3nc4ccc(S(C)(=O)=O)cc4s3)c3ccccc3n2)cc1,0.64
3,CC(C)C[C@H](NC(=O)c1ccc(O)c(C(C)(C)C)c1)C(=O)NCC#N,-6.98
4,CC(C)C[C@H](NC(=O)c1cc2ccccc2cn1)C(=O)NCC#N,5.05
5,COC(=O)C1=C(C)NC(=O)/C1=C\c1ccc(Cl)cc1,-9.9
6,COC(=O)c1sccc1NC(=O)Cn1ncc2c3ccccc3nc-2c1O,2.13
7,C#CCN1C(=O)S/C(=C\c2cc(OC)c(N3CCCC3)cc2OC)C1=O,3.35
8,Cc1sc(NC(=O)Cn2nc(C(F)(F)F)cc2C)c(C#N)c1C,0.385
9,CCOc1ccc(/C=C(\NC(=O)c2ccc(C)cc2)C(=O)Nc2cccc(O)c2)cc1,4.67
10,CCOc1cc(C2C(C#N)=C(N)Oc3ccc4ccccc4c32)ccc1O (stereo not drawn),-4.03
11,Cc1cc(C)c2nc(N3CCC(C(=O)N4CCN(c5ccccn5)CC4)CC3)sc2c1,3.4
12,COCc1[nH]nc2c1C(c1ccnc3ccccc13)C(C#N)=C(N)O2 (stereo not drawn),-0.68
13,COC(=O)c1cc(S(=O)(=O)NCCN(Cc2ccco2)C2CCCC2)cn1C,-0.658
14,COc1cc(CN2CCN(Cc3cccc(Br)c3)CC2)cc(OC)c1OC,9.41
15,CC12CN3CC(C)(CN(C1)C3c1ccc(O)cc1)C2O (stereo not drawn),2.1
16,CCOC(=O)N1CCN(S(=O)(=O)c2ccc3c(c2)OCCO3)CC1,-9.83
17,CN1CCCCc2c(n(Cc3ccccc3)c3ccccc23)C1=O,3.34
18,Cc1ccc(Nc2nc(-c3ccccc3O)nc3ccccc23)c(C)c1,5.09
19,Cc1c(C(=O)NC(c2ccccc2)c2ccccc2)cccc1[N+](=O)[O-],2.26
20,O=S(=O)(c1ccc(-c2ccc(O)nn2)o1)N1CCc2ccccc2C1,-8.17
21,O=C(CCc1ccccc1)Nc1cccc(NC(=O)CCc2ccccc2)c1,14.9

row,SMILES,% Inhibition @ 10 uM [%]
1,COc1cc(-c2nnc(SCC#CCO)o2)cc(OC)c1OC,-1.15
2,O=C1CC(c2ccccc2)CC(=O)C1=CNc1cc(Cl)ccc1Cl (stereo not drawn),5.54
3,COc1cc(C(=O)Nc2nnc(CCS(=O)(=O)c3ccc(Cl)cc3)s2)cc(OC)c1OC,2.94
4,O=Cc1cc(Cl)cc2c1OCOC2,0.906
5,CCOc1ccc(C2CC(=O)Nc3c2c(=O)nc(SCc2ccccc2Cl)n3C)cc1OC (stereo not drawn),-2.88
6,NC(=O)c1sc2nc(C34CC5CC(CC(C5)C3)C4)cc(C(F)(F)F)c2c1N,1.89
7,Cc1ccc(-n2ncc3c(=O)n(Cc4ccccn4)cnc32)cc1C,-0.0309
8,COc1ccc2cc(C3CC(c4ccc(Cl)cc4)=NN3C(C)=O)c(Cl)nc2c1 (stereo not drawn),-5.31
9,COc1ccc(CCNC(=O)C2=C(C)C(=O)OC23CCN(C(C)=O)CC3)cc1OC,-7.94
10,N#C/C(=C\c1cccc2ccccc12)c1nc(-c2ccc([N+](=O)[O-])cc2)cs1,2.7
11,O=c1oc2ccccc2c(O)c1NS(=O)(=O)c1ccc2c(c1)CCCC2,-2.23
12,Cc1oc2ncn3nc(-c4ccncc4)nc3c2c1C,-6.26
13,CCOCCCNC(=O)c1nn(C)c2c1CS(=O)(=O)c1ccccc1-2,4.51
14,O=C(/C=C/c1cccc([N+](=O)[O-])c1)Nc1cccc(Cl)c1Cl,3.8
15,Cc1cccc(NC(=O)c2c(-c3ccccc3Cl)noc2C)c1,-3.69
16,CCOCCOC(=O)C1=C(C)NC(=O)CC1c1cccc(Cl)c1 (stereo not drawn),0.484
17,N#Cc1ccccc1NC(=O)c1sc2nc3c(cc2c1N)CCC3,-5.07
18,COc1cc(C2C(C#N)=C(N)OC3=C2C(=O)CC(C)(C)C3)ccc1OC(C)C (stereo not drawn),-8.28
19,COc1ccc(C2C3=C(O)CC(C)(C)CC3=Nc3ncnn32)c(OC)c1OC (stereo not drawn),1.73
20,Cc1cc(O)c(C(=O)/C=C/c2cccs2)c(=O)o1,-0.268
21,O=C(CSc1nc2ccccc2nc1SCC(=O)NCC1CCCO1)NCC1CCCO1 (stereo not drawn),-0.834
